This is an account of results in the supplement of paper PMC4967469.

Usually IC50 stands for the midpoint of a concentration-inhibition curve.

IC50 is the fitted dose that halves viability relative to control wells, and lower means more sensitive; a fit beyond the top or the lowest dose is shown as a bound at that dose. AUC sums up the same curve from the lowest dose to the 256-fold higher top dose; values near 1 show little effect. The top dose, if marked as inferred, is not printed in the source and was worked back from the curve model. Drugs with an entry number were screened twice under separate entries, and the two screens often disagree.

Compound in one test: NC(=O)[C@@H](CCC(F)(F)F)N(Cc1ccc(-c2ncon2)cc1F)S(=O)(=O)c1ccc(Cl)cc1 [BMS-708163]
Briefly: Viability of human cancer cell lines after 72 h of drug (GDSC screen). Conditions: screen: GDSC drug entry 205; top dose inferred. As for the experimental part:
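Human cancer cell lines in 384-well plates, medium with 10% serum, drug for 72 h over a 256-fold dose range (nine 2-fold or five 4-fold steps up to the top dose). Adherent lines were fixed and stained with the nucleic acid dye Syto60, suspension lines read with resazurin; signal relative to control wells, capped at 0 and 100%. One two-parameter sigmoid per drug and line, fitted in a mixed model over all curves with the slope shared within a line.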
For “H3255 (lung adenocarcinoma, adherent, top dose 10.24 µM)”, the AUC turned out to be 0.983 and the IC50 was greater than 10.2 µM.

Turning to “H-EMC-SS (chondrosarcoma, adherent, top dose 10.24 µM)”, the AUC is 0.977 and the IC50 was greater than 10.2 µM.

Turning to “HA7-RCC (kidney, adherent, top dose 10.24 µM)”, the AUC came out at 0.984 and the IC50 was greater than 10.2 µM.

Take “HAL-01 (lymphoblastic leukaemia, suspension, top dose 10.24 µM)”: the AUC was 0.989 and the IC50 is greater than 10.2 µM.

“HARA (lung squamous cell carcinoma, adherent, top dose 10.24 µM)”: the AUC is 0.966 and the IC50 is greater than 10.2 µM.

Regarding “HC-1 (hairy cell leukaemia, suspension, top dose 10.24 µM)”, the AUC was determined as 0.923 and the IC50 is greater than 10.2 µM.

Consider “HCC38 (breast, adherent, top dose 10.24 µM)”, for which the AUC amounted to 0.977 and the IC50 was greater than 10.2 µM.

With “HCC70 (breast, adherent, top dose 10.24 µM)”, the AUC worked out at 0.986 and the IC50 is greater than 10.2 µM.

Take “HCC1143 (breast, adherent, top dose 10.24 µM)”: the AUC is 0.98 and the IC50 was greater than 10.2 µM.

Regarding “HCC1187 (breast, suspension, top dose 10.24 µM)”, the AUC was 0.986 and the IC50 is greater than 10.2 µM.

As for “HCC1395 (breast, adherent, top dose 2.56 µM)”, the AUC is 0.982 and the IC50 is greater than 2.56 µM.

In the case of “HCC1419 (breast, adherent, top dose 10.24 µM)”, the AUC was 0.982 and the IC50 is greater than 10.2 µM.

Turning to “HCC1428 (breast, adherent, top dose 10.24 µM)”, the AUC was 0.973 and the IC50 was greater than 10.2 µM.

Regarding “HCC1500 (breast, adherent, top dose 10.24 µM)”, the AUC is 0.987 and the IC50 was greater than 10.2 µM.

In the case of “HCC1569 (breast, adherent, top dose 10.24 µM)”, the AUC was 0.977 and the IC50 was greater than 10.2 µM.

Consider “HCC1599 (breast, suspension, top dose 2.56 µM)”, for which the AUC worked out at 0.977 and the IC50 was greater than 2.56 µM.

As to “HCC1806 (breast, adherent, top dose 10.24 µM)”, the AUC came to 0.981 and the IC50 was greater than 10.2 µM.

“HCC1937 (breast, adherent, top dose 10.24 µM)”: the AUC is 0.978 and the IC50 was greater than 10.2 µM.

Take “HCC1954 (breast, adherent, top dose 10.24 µM)”: the AUC came out at 0.982 and the IC50 was greater than 10.2 µM.

As for “HCC2157 (breast, suspension, top dose 10.24 µM)”, the AUC was 0.987 and the IC50 was greater than 10.2 µM.

As for “HCC2218 (breast, suspension, top dose 2.56 µM)”, the AUC is 0.972 and the IC50 was greater than 2.56 µM.

For “HCC2998 (large intestine, adherent, top dose 2.56 µM)”, the AUC came to 0.988 and the IC50 is greater than 2.56 µM.

With “HCC-15 (lung squamous cell carcinoma, adherent, top dose 10.24 µM)”, the AUC worked out at 0.98 and the IC50 is greater than 10.2 µM.

Regarding “HCC-33 (small cell lung carcinoma, adherent, top dose 10.24 µM)”, the AUC amounted to 0.983 and the IC50 is greater than 10.2 µM.

Consider “HCC-44 (lung adenocarcinoma, adherent, top dose 10.24 µM)”, for which the AUC came to 0.981 and the IC50 is greater than 10.2 µM.

In the case of “HCC-56 (large intestine, adherent, top dose 10.24 µM)”, the AUC is 0.985 and the IC50 was greater than 10.2 µM.

“HCC-78 (lung adenocarcinoma, adherent, top dose 10.24 µM)”: the AUC came out at 0.982 and the IC50 is greater than 10.2 µM.

For the cell line “HCC-827 (lung adenocarcinoma, adherent, top dose 10.24 µM)”, the AUC was determined as 0.984 and the IC50 is greater than 10.2 µM.

Consider “HCE-4 (oesophagus, adherent, top dose 10.24 µM)”, for which the AUC was found to be 0.992 and the IC50 was greater than 10.2 µM.

“HCT-15 (large intestine, adherent, top dose 10.24 µM)”: the AUC is 0.987 and the IC50 is greater than 10.2 µM.

For the cell line “HCT-116 (large intestine, adherent, top dose 10.24 µM)”, the AUC stood at 0.983 and the IC50 is greater than 10.2 µM.

For “HD-MY-Z (Hodgkin lymphoma, adherent, top dose 10.24 µM)”, the AUC was found to be 0.985 and the IC50 was greater than 10.2 µM.

On to “HDLM-2 (Hodgkin lymphoma, suspension, top dose 10.24 µM)”, for which the AUC was 0.987 and the IC50 is greater than 10.2 µM.

With “HDQ-P1 (breast, adherent, top dose 10.24 µM)”, the AUC was determined as 0.985 and the IC50 is greater than 10.2 µM.

“HEC-1 (endometrium, adherent, top dose 10.24 µM)”: the AUC came out at 0.989 and the IC50 is greater than 10.2 µM.

As to “HEL (acute myeloid leukaemia, semi-adherent, top dose 10.24 µM)”, the AUC was 0.942 and the IC50 is greater than 10.2 µM.

In the case of “HGC-27 (stomach, adherent, top dose 10.24 µM)”, the AUC amounted to 0.99 and the IC50 is greater than 10.2 µM.

In the case of “HH (T-cell leukaemia, suspension, top dose 10.24 µM)”, the AUC was 0.953 and the IC50 is greater than 10.2 µM.

As for “HL-60 (acute myeloid leukaemia, suspension, top dose 10.24 µM)”, the AUC worked out at 0.969 and the concentration for half-maximal inhibition (IC50) was greater than 10.2 µM.

In the case of “HLE (liver, adherent, top dose 10.24 µM)”, the AUC turned out to be 0.989 and the 50% inhibitory concentration (IC50) is greater than 10.2 µM.

On to “HMV-II (melanoma, adherent, top dose 10.24 µM)”, for which the AUC came out at 0.968 and the half-maximal inhibitory concentration (IC50) was greater than 10.2 µM.

With “HN (head and neck, adherent, top dose 10.24 µM)”, the AUC turned out to be 0.988 and the half-maximal inhibitory concentration (IC50) is greater than 10.2 µM.

Regarding “HO-1-N-1 (head and neck, adherent, top dose 10.24 µM)”, the AUC was 0.988 and the IC50 is greater than 10.2 µM.

Turning to “HO-1-u-1 (head and neck, adherent, top dose 10.24 µM)”, the AUC was found to be 0.988 and the IC50 was greater than 10.2 µM.

Regarding “HOP-62 (lung adenocarcinoma, adherent, top dose 10.24 µM)”, the AUC was found to be 0.984 and the IC50 was greater than 10.2 µM.

As to “HOP-92 (large cell lung carcinoma, adherent, top dose 10.24 µM)”, the AUC worked out at 0.98 and the IC50 is greater than 10.2 µM.

Regarding “HOS (osteosarcoma, adherent, top dose 10.24 µM)”, the AUC was 0.992 and the IC50 is greater than 10.2 µM.

“HPAC (pancreas, adherent, top dose 10.24 µM)”: the AUC is 0.907 and the IC50 is greater than 10.2 µM.

For “HPAF-II (pancreas, adherent, top dose 10.24 µM)”, the AUC stood at 0.979 and the IC50 was greater than 10.2 µM.

For the cell line “HSC-2 (head and neck, adherent, top dose 10.24 µM)”, the AUC came out at 0.989 and the IC50 was greater than 10.2 µM.

For the cell line “HSC-3 (head and neck, adherent, top dose 10.24 µM)”, the AUC came out at 0.99 and the IC50 is greater than 10.2 µM.

Regarding “HSC-4 (head and neck, adherent, top dose 10.24 µM)”, the AUC was 0.979 and the IC50 was greater than 10.2 µM.

For “HSC-39 (stomach, suspension, top dose 10.24 µM)”, the AUC is 0.99 and the IC50 is greater than 10.2 µM.

Take “HT55 (large intestine, adherent, top dose 10.24 µM)”: the AUC worked out at 0.99 and the IC50 is greater than 10.2 µM.

With “HT (B-cell lymphoma, suspension, top dose 10.24 µM)”, the AUC came to 0.99 and the half-maximal inhibitory concentration (IC50) was greater than 10.2 µM.

As to “HT-3 (cervix, adherent, top dose 10.24 µM)”, the AUC stood at 0.987 and the IC50 is greater than 10.2 µM.

On to “HT-29 (large intestine, adherent, top dose 10.24 µM)”, for which the AUC amounted to 0.966 and the IC50 was greater than 10.2 µM.

As to “HT-115 (large intestine, adherent, top dose 10.24 µM)”, the AUC was 0.983 and the IC50 is greater than 10.2 µM.

As to “HT-144 (melanoma, adherent, top dose 10.24 µM)”, the AUC was 0.983 and the IC50 is greater than 10.2 µM.

For the cell line “HT-1080 (fibrosarcoma, adherent, top dose 10.24 µM)”, the AUC is 0.989 and the IC50 is greater than 10.2 µM.

“HT-1197 (bladder, adherent, top dose 10.24 µM)”: the AUC was found to be 0.959 and the IC50 is greater than 10.2 µM.

“HT-1376 (bladder, adherent, top dose 10.24 µM)”: the AUC worked out at 0.972 and the IC50 is greater than 10.2 µM.

With “HTC-C3 (thyroid, adherent, top dose 10.24 µM)”, the AUC is 0.975 and the IC50 was greater than 10.2 µM.

Staying with this test, now noted: top dose 5 µM; screen: GDSC drug entry 1072; top dose inferred.
For the cell line “HCC-366 (non-small cell lung carcinoma, adherent)”, the AUC was found to be 0.985 and the IC50 is greater than 5 µM.

As for HCE-4 (oesophagus, adherent), the AUC is 0.99 and the IC50 was greater than 5 µM.
